The chains are these.
B1: chr1:225611761:225611762:-_ENSG00000143815_ENST00000272163|hu_mus|hu_hu_hu_mus_True|8_8 (ssRNA)
RNA: GGGAGUUCUACAGUCCGACGAUCCCAGGCCAUCGGCCUCUGACCACUUCACCCUCAACAAACUUCCUACUUGGCAUUUUCUAAAAUUAGUCUGGCCGCGCUCCGGCGGGAACUCCAGCCACUCCAGGGAGAAUAGUAGCAGCCCAACAGAGGAUUGAGCAUCA
B2: chr4:144460044:144460045:+_ENSG00000153147_ENST00000283131|hu_mus|hu_hu_hu_mus_False|68_88 (ssRNA)
RNA: GGGAGUUCUACAGUCCGACGAUCACGGUCCAUAGCCUGAAGAUCAACUUGGGGAUUCCAAUCUGAGUCAUACAAAAUGACUACAUCAGCAGUUGCAAGAUUGAUGCCCAGACCACCAGCACGUGUGCUUAGCAUAAAUACAAACAACAGAGGAUUGAGCAUCA
B3: chr5:143665068:143665069:-_ENSMUSG00000029580_ENSMUST00000100497|mus_mus|FALSE|FALSE (ssRNA)
RNA: GGGAGUUCUACAGUCCGACGAUCCAUAAUUUACACAGAAGCAAUGCUGUCACCUUCCCCGGGGUGGACUCAGGGCAUGGACGCGACCAUCCUCCUCUUAGGAGUGGGGGUGGCUUUUGGGAGGGUGAGGGACUUCCUGUAACCCAACAGAGGAUUGAGCAUCA
B4: chr16:94690093:94690094:+_ENSMUSG00000040785_ENSMUST00000117648|mus_hu|mus_mus_mus_hu_True|28_78 (ssRNA)
RNA: GGGAGUUCUACAGUCCGACGAUCGGGCUGGGAUGACGGACACACAGCCUCGAUUCCGGUAAAAAAAAGUCUUAGUCGAUACUAAUUAAAAAGUGUUAAUGAUUUUUAUUACCAAAAUUACAUCUAUAAAAGAUGAAAAGCAAACAACAGAGGAUUGAGCAUCA
B5: 94668236_94668435_1030_CDS_ENSMUSG00000038902_ENSMUST00000107270|mouse|control|control (ssRNA)
RNA: GGGAGUUCUACAGUCCGACGAUCCUUCACAGUGACAAAGCUGGCAAUGCUCACUGCAGGUGGAGAGGGGAAGGAGGGAGCUAGUUUGGGAUUCGAGGUCUGGUUGGACUGGCCUGGAGGCUGACCAGCUAGCUGCCCCAGUGACAACAGAGGAUUGAGCAUCA
B6: chr14:70181642:70181643:+_ENSG00000100647_ENST00000342745|hu_mus|FALSE|FALSE (ssRNA)
RNA: GGGAGUUCUACAGUCCGACGAUCAAAGCAAACCCAGAUUGAUUGACAUCCUGCACAGUCAAUUAAGCAUGUGUUGUUUAAACCAUUUUAUGAGUACCAUUCUGCAAAGGAUCCCAUAGUGGUGCACAGCCUUAAGAAGCCAGGCAACAGAGGAUUGAGCAUCA
B7: chr18:56819859:56819860:+_ENSG00000166562_ENST00000588875|hu_mus|FALSE|FALSE (ssRNA)
RNA: GGGAGUUCUACAGUCCGACGAUCAACCUUGAUUACUCUGUGAACUAUCGGAAUGUCUCUUCCUUCAACCUUAAAAACAACUAUUUCACCAGCUCUGAUGGGGUCCUCCCGGAAAUUCGUGAGGAACAGCAGAUCUCCUCUGUGCAACAGAGGAUUGAGCAUCA
B8: chr9:15127005:15127006:-_ENSMUSG00000046111_ENSMUST00000161132|mus_hu|motif|central (ssRNA)
RNA: GGGAGUUCUACAGUCCGACGAUCUGGUAUAGAGCUCUGUAAUGAAAAUGAUCCAGAACUUGCAAAAAGCUCUGAUUCUCCGGGUUGAGAUAGUUUUUUGGUGAUUUUUGGAAUGUCUGUUUCAGCUGAAUUCUCAAAAUAUUUCAACAGAGGAUUGAGCAUCA
B9: chr7:112906983:112906984:-_ENSMUSG00000036862_ENSMUST00000078482|mus_mus|motif|central (ssRNA)
RNA: GGGAGUUCUACAGUCCGACGAUCUGGGGAGAUAACUGGAGUCCCUGGUGGUGCAUUUUCACGGAGCACAGCCUCACGGCGGGUUCUGGGAAAGCGGGGUCCACGCUCAGGCUCUCCCUGUAUUCCAACAACGACCACACCAGUCAACAGAGGAUUGAGCAUCA
B10: chr1:46159212:46159213:+_ENSG00000159596_ENST00000372025|hu_mus|hu_hu_hu_mus_True|38_88 (ssRNA)
RNA: GGGAGUUCUACAGUCCGACGAUCUCUGAUCCCUCCCAAGAAAGCUAGGAAACUGGCUCCAUAAGCCAUCUGAGUGAAAGCUAGGACGGGGAUAUAAGUUUUUGUCAUUACCAUGAGAAGUGGGGGAGCAGUAAAGGGGAUUAACAACAGAGGAUUGAGCAUCA
B11: 11582453_11582573_7118_3pUTR_ENSG00000205269_ENST00000379426|human|control|control (ssRNA)
RNA: GGGAGUUCUACAGUCCGACGAUCUGCACAAGUAUCUUAACUUUCAAGGCACUAAGGCUUCAUUUAGCUUUUAAAAUCUGCCUGUGAUUUACCAAAAGAUUCAUCAGUGGUCUGAGAGUUAACACAAUUUGAAAGUGAGACUUUCAACAGAGGAUUGAGCAUCA
B12: chr8:61654917:61654918:+_ENSG00000171316_ENST00000423902|hu_hu|motif|central (ssRNA)
RNA: GGGAGUUCUACAGUCCGACGAUCAUUCAUUGGAGUAUUAUUUGUAAGGCCUAAAUUUUGAUUCAUCCCUGUAUUGUUAACGGAUCCCUGAUUUAGGUUACUGUAAGGAUAUCGAGAAUACUGCCCUGAGUUGUUUAUAGUAGGCAACAGAGGAUUGAGCAUCA
B13: chr5:67074945:67074946:+_ENSMUSG00000029223_ENSMUST00000031131|mus_hu|FALSE|FALSE (ssRNA)
RNA: GGGAGUUCUACAGUCCGACGAUCUCGUCCAUCAAGUUCAUAGAGGUGGCCAUCCACGUUGUUAAACAGAAUAAAAUGGAAAUUCACCUUGUCAUCUACCCGACAUUGGCCUUCCUGUGCCACGGCAUCAUGGGCUGCCUGUAUCAACAGAGGAUUGAGCAUCA
B14: chr7:117451621:117451622:-_ENSMUSG00000038371_ENSMUST00000164759|mus_hu|FALSE|FALSE (ssRNA)
RNA: GGGAGUUCUACAGUCCGACGAUCAAUGUGAGGCAAUGUAAUGCCUUCACGAAAGUUAAAGUAAUCCAGUUACAAAAGAAGCACUGUGUAUAGUCUCAAAUAGCUGAAGGUACAAUGGGCUCCAUAUUUUACAAAGUACAAAAACAACAGAGGAUUGAGCAUCA
B15: chr2:5814250:5814251:-_ENSMUSG00000025816_ENSMUST00000102981|mus_hu|mus_mus_mus_hu_True|1_78 (ssRNA)
RNA: GGGAGUUCUACAGUCCGACGAUCUUCCUUUCCGGUUUCUGAAUUUCUGGUAGAACUGCACAGAAAGGUUUGAUAACUUCUAAAAAUUUGAUGCCCAUGGCUGCUGCUGGGGAGGCCCAGGGGGAAACCGCGGCCUCGCAGCUGCAACAGAGGAUUGAGCAUCA
B16: chr9:82769708:82769709:-_ENSMUSG00000032253_ENSMUST00000034787|mus_hu|motif|central (ssRNA)
RNA: GGGAGUUCUACAGUCCGACGAUCAAAAGUCUUUGCAGCUGAAGAAGUAGAUGGUUGCUCAGUGACAACUGGAUCGGCAACCACUCGGUUGCUUCUGGUUCGAACCACAGAACUAGAUUCUGUUUUACCGUUUAUCUGAGCAGCCAACAGAGGAUUGAGCAUCA
B17: chr19:12019223:12019224:+_ENSMUSG00000046139_ENSMUST00000061618|mus_hu|FALSE|FALSE (ssRNA)
RNA: GGGAGUUCUACAGUCCGACGAUCAGGGAAGGUAGGAAAGGCAUGUAGUGGAAAUGGUCAGUAGACAACGGUAGAGGGAAGCUAGGUAACAUCACUGGGGAACAGCUGGUGGAGCCUGGGGUUACAGCAUGGGAAGAAAUGGAGCAACAGAGGAUUGAGCAUCA
B18: chr22:19452774:19452775:-_ENSG00000070010_ENST00000399523|hu_hu|hu_hu_hu_mus_False|1_68 (ssRNA)
RNA: GGGAGUUCUACAGUCCGACGAUCCUUCUCAUUGUAGUUGAUAGCAAUCACAUCUCCAGUCGUCAGACAGGCAAAGUUUCUCAAUGCAUUUUCUAAUACCGCUUUAGGGUUGGUAAUAUCCAGGAAGUCUGGGCUCUGAGGUUGCAACAGAGGAUUGAGCAUCA
B19: 51747384_51747599_595_CDS_ENSMUSG00000008140_ENSMUST00000118515|mouse|control|control (ssRNA)
RNA: GGGAGUUCUACAGUCCGACGAUCCUCCAGGCGCUCAAUGAAGGCUGCAGUCUCGGGGCCUGGAGCAGUGCUGGGAGGCCGCAGCUGCACAGAUGUAUUGAACAGCUCCAGGUCCUCAUCUUCCACCUCGGAGCCCCGGCAGCCCAACAGAGGAUUGAGCAUCA
B20: chr5:145543945:145543946:-_ENSG00000133706_ENST00000545646|hu_hu|hu_hu_hu_mus_True|58_78 (ssRNA)
RNA: GGGAGUUCUACAGUCCGACGAUCCUGAACGGCCAGUGGUGGGAAAUAAUCAAGCCAAUGUUCUGCUUCAGAAAACUUUACUAUCUCGUCAUCAGAGAGCCCAAGGGAUUUCAUAAUGUCCCACUGGUACUUAGAAGAUCCUGCCAACAGAGGAUUGAGCAUCA
B21: 40814524_40814644_2448_CDS_ENSG00000196588_ENST00000355630|human|control|control (ssRNA)
RNA: GGGAGUUCUACAGUCCGACGAUCCUGGGGGGCGGGGACCGGCUCGGGCUCAGGCUGCAAGGCUUCCUGCUUCACCACCACGGACGGGGGCCCCGGGGCCACAGCACAAGGGUCUAUGUGGUUGGUGGCUGGGGCCGCCAGGCUCAACAGAGGAUUGAGCAUCA
B22: chr3:104804989:104804990:-_ENSMUSG00000062127_ENSMUST00000098763|mus_mus|FALSE|FALSE (ssRNA)
RNA: GGGAGUUCUACAGUCCGACGAUCAGCACAUCAUUAGAUUCUGCUGACCAGUAACAGCUUCUUUGAUAUGGUUAAUACCCAAAUUGUGAAUCAUGGAACUUUUACUUAGCGCACACACUCACAAUCUACUGCAAACUGAAAUACCAACAGAGGAUUGAGCAUCA

Some of the results follow.

The target in the assay is T1, UNK ZnF1-3 (human, UniProt Q9C0B0 31-174).
T1 sequence: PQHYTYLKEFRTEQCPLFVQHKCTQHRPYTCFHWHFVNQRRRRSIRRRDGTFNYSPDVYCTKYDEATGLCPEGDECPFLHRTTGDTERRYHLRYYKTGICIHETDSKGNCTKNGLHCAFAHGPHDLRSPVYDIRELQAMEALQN
The assay can be described thus: nsRBNS (natural sequence RNA bind-n-seq); RBNS binding buffer (assumed for nsRBNS): 25 mM Tris pH 7.5, 150 mM KCl, 3 mM MgCl2, 0.01% Triton X-100, 500 ug/ml BSA, 20 U/ml SUPERase-In, 4 C; UNK is unkempt and MSI1 is Musashi-1; names of the RNAs are library labels; protein concentration not given here; high values mean tight binding.
As to B1, the binding signal was found to be 1.23 enrichment R.
B2 registered a binding signal of 1.26 enrichment R.
In the case of B3 it was 0.971 enrichment R; in that of B4, 0.946 enrichment R.
In the case of B5 it was 0.989 enrichment R; in that of B6, 1.23 enrichment R; in that of B7, 0.758 enrichment R.
Take B8: the binding signal is 0.991 enrichment R.
For B9, the binding signal worked out at 0.757 enrichment R.
Consider B10, for which the binding signal worked out at 1.28 enrichment R.
In the case of B11 it was 0.722 enrichment R; in that of B12, 0.753 enrichment R.
B13 had a binding signal of 1.27 enrichment R.
For B14 the value was 1.26 enrichment R; for B15, 0.976 enrichment R.
In the case of B16 it was 0.597 enrichment R; in that of B17, 2.31 enrichment R.
Molecule B18 came in with a binding signal of 1.02 enrichment R.
For B19 the value was 0.788 enrichment R; for B20, 1.21 enrichment R; for B21, 0.825 enrichment R.
The molecule B22 yielded a binding signal of 1.33 enrichment R.
